PubChem BioAssay AID504339 (National Center for Advancing Translational Sciences (NCATS), 2011)
Hit rate of the full screen: of about 390,000 compounds, about 17,000 (4.4%) were called active. This list was built around the results that the source calls inconclusive (neither active nor inactive); the mix of calls is not that of the screen. The call rests on the fitted dose curve; in most records, active means well fitted inhibition curve with a large enough effect; inconclusive means small, poorly fitted or top-dose-only effect; inactive means no such curve, though single readings can be large or run the other way. Potencies beside an inconclusive call are fits to weak or partial responses and may not hold up. The source holds several records for some structures; these can differ, active in one and inactive in another.

Each molecule was assayed against Lysine-specific demethylase 4A (Homo sapiens) (UniProt O75164) (assay: qHTS Assay for Inhibitors of JMJD2A-Tudor Domain). Conditions: AlphaScreen JMJD2A-Tudor / H3K4me3 peptide binding; activity change, negative = inhibition: at 114 µM (top of the series).
Further: nearly all actives have a fitted effect of over 50% in size.
On the % scale 0 is the no-effect control and ±100 the full control effect; potency means the concentration at half of the fitted maximal effect; tags describe the fitted curve by direction and shape.

Chain of UniProt O75164 (O75164 whole entry, looked up, the tested form may be a part): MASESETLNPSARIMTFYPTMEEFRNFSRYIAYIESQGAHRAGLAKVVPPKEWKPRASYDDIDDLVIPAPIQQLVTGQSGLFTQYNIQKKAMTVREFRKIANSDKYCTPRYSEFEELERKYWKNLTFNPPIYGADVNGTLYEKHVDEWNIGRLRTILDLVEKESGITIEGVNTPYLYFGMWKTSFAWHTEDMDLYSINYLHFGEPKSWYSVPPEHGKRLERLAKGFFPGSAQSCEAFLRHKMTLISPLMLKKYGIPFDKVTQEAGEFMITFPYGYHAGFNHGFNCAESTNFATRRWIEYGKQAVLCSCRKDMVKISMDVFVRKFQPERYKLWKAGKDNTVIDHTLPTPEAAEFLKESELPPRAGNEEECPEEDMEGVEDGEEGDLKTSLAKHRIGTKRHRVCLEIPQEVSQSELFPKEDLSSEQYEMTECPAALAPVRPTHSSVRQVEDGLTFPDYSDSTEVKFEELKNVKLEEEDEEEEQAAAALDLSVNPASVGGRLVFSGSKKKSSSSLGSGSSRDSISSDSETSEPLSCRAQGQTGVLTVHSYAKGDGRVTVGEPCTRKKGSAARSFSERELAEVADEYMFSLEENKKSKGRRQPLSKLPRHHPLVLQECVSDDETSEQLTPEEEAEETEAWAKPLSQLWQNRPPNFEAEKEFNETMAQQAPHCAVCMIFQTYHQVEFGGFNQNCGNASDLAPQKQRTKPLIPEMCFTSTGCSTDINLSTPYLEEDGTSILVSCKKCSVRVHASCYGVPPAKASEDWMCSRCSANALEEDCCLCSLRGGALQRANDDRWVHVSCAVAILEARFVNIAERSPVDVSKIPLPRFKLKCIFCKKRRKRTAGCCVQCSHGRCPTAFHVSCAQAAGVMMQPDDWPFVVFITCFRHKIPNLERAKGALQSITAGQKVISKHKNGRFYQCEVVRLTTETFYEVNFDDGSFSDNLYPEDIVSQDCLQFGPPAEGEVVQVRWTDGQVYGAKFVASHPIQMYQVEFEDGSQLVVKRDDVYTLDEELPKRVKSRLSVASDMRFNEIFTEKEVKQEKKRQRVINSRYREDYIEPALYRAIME

Compound | activity change, negative = inhibition | Potency
O=C(COc1ccc(F)cc1Cl)Nc1ccc(N2CCOCC2)cc1N1CCOCC1 | inactive: -28.3% | –
CCC(C)(C)NC(=O)C(c1ccccn1)N(C(=O)c1csnn1)c1ccc(C)c(C)c1 (configuration not stated) | inactive: -8.22% | –
COCCn1c(-c2ccc(Br)cc2)csc1=Nc1cccnc1 | – | active: 44.7 µM
COc1cc(OC)cc(-c2sc3ccc(OC)cc3c2C#CCCO)c1 | inactive: -29.6% | –
Cc1c(NC(=O)/C(C#N)=C/c2ccc(-c3ccccc3Cl)o2)c(=O)n(-c2ccccc2)n1C | – | inconclusive: 15.8 µM [inhibitor, full curve]
CC(=O)Nc1ccc(S(=O)(=O)Nc2cccc(-c3cn4c(n3)SCC4)c2)cc1 | inactive: -29.6% | –
CCN(C)c1ccc(/C=N\n2nnnc2N)cc1 | inactive: -0.714% | –
C=C1CN(CC(=O)OC)S(=O)(=O)c2ccccc21 | – | active: 89.1 µM
Cc1ccc(C2c3sc(=O)[nH]c3SC3C(=O)NC(=O)C32)cc1 (configuration not stated) | – | inconclusive: 14.1 µM [inhibitor, single point]
Cc1c(Br)c(O)c(Br)c2sc(=O)oc12 | – | active: 44.7 µM
COc1ccc(N2C(=NC(=O)C3CCCCC3)SC3CS(=O)(=O)CC32)c(OC)c1 (configuration not stated) | – | active: 28.2 µM
COc1ccc(CCNC(=O)c2ccc3c(c2)N=C(C)c2ccccc2S3)cc1OC | – | inconclusive: 50.1 µM [inhibitor, partial curve]
CCCCc1nc(NCCN)c(C#N)c2c1CSC(C)(C)C2 | – | inconclusive: 56.2 µM [inhibitor, partial curve]
CCc1nnc(NC(=O)C(=O)NCCOC(=O)c2ccccc2Cl)s1 | – | inconclusive: 100 µM [inhibitor, partial curve]
COc1cc(C)c(CNc2cc(C)cc(C)c2)cc1C | – | active: 89.1 µM
COc1ccc(NC(=O)C(c2cc3c(cc2[N+](=O)[O-])OCO3)N(C)Cc2ccccc2)cc1 (configuration not stated) | – | inconclusive: 20 µM [inhibitor, full curve]
Cc1cc(N2C(=O)C(O)=C(C(=O)c3cc4ccccc4o3)C2c2cccs2)no1 (configuration not stated) | – | inconclusive: 50.1 µM [inhibitor, partial curve]
CN(C(=O)COC(=O)c1ccc(=O)n(Cc2ccccc2)n1)c1ccccc1 | – | inconclusive: 12.6 µM [inhibitor, full curve]
Cc1noc(C)c1S(=O)(=O)N1CCCC1C(=O)O (configuration not stated) | inactive: 2.11% | –
O=C(c1ccc([N+](=O)[O-])cc1)N1CCN(C(=O)c2ccco2)CC1 | inactive: -21.8% | –
Nc1nc(Nc2cccc(F)c2)nc2ccccc12 | inactive: -19.7% [at 57.1 µM] | –
CC1(C)CC(NNCCC#N)=CC(=[N+]2CCCC2)C1 | inactive: -14.3% [at 11.4 µM] | –
Cc1nc(Nc2ccccc2)sc1C | – | inconclusive: 89.1 µM [inhibitor, partial curve]
O=[N+]([O-])c1ccccc1/C=N/n1c(COc2ccccc2)n[nH]c1=S | – | active: 50.1 µM

Compound | activity change, negative = inhibition | Potency
CCOC(=O)c1c(C)[nH]c(C)c1S(=O)(=O)N1CCN(c2cc(Cl)ccc2C)CC1 | – | inconclusive: 63.1 µM [inhibitor, partial curve]
CCOC(=O)c1c(-c2ccc(C)cc2)csc1NC(=O)CCN1CCOCC1 | – | active: 6.31 µM
CC1(C)CC(=O)C2=C(C1)N1C(=C(C#N)C2c2ccc(Cl)cc2)N=C(N)c2ccccc21 (configuration not stated) | – | inconclusive: 35.5 µM [inhibitor, partial curve]
Cc1cc(-c2csc(N)n2)c(C)n1CCC(C)C | – | active: 50.1 µM
O=C(NCCCCc1ccccc1)C1CC(c2cccc([N+](=O)[O-])c2)=NO1 (configuration not stated) | – | inconclusive: 89.1 µM [inhibitor, partial curve]
Cc1nc2c(-c3ccccc3)c(C)nn2c(SCC(N)=O)c1Cc1ccccc1 | inactive: 2.99% | –
NC(=O)c1ccc(NC(=O)CS(=O)(=O)c2cn(CC(=O)N3CCCCC3)c3ccccc23)cc1 | inactive: -1.37% | –
Cc1ccc(OCc2n[nH]c(=S)n2-c2ccc(Cl)cc2)cc1 | – | inconclusive: 79.4 µM [inhibitor, partial curve]
O=C(Cc1cccs1)Nc1ccc(S(=O)(=O)Nc2ncccn2)cc1 | – | active: 79.4 µM
CC1=C(C(=O)OC(C)C)C(c2ccco2)NC(=O)N1 (configuration not stated) | – | inconclusive: 56.2 µM [inhibitor, partial curve, poor fit]
O=C1c2cccnc2C(=O)N1Cc1ccc(Cl)cc1 | – | inconclusive: 56.2 µM [inhibitor, partial curve]
COc1cccc(NS(=O)(=O)c2ccc3[nH]cc(C(=O)NC(C)c4ccccc4)c(=O)c3c2)c1 (configuration not stated) | – | inconclusive: 31.6 µM [inhibitor, partial curve]
CCC(C)c1ccccc1NC(=O)c1cccc(-n2cnnn2)c1 (configuration not stated) | – | inconclusive: 28.2 µM [inhibitor, partial curve]
CC(=C\c1ccccc1)/C=C1/SC(=S)N(CCC(=O)O)C1=O | – | inconclusive: 44.7 µM [inhibitor, partial curve]
c1cc2c(cc1C1=Nn3c(nnc3C3CCCCC3)SC1)OCO2 | inactive: -6.32% | –
Cc1ccccc1OCC(=O)NCC(=O)OCc1cccc2ccccc12 | inactive: -13.1% [at 57.1 µM] | –
CCOc1ccc(NC(=S)NC(=O)C2CCCC2)cc1 | inactive: 9.93% | –
O=C(NC(=S)NNC(=O)c1cc2ccccc2cc1O)c1ccco1 | – | active: 44.7 µM
O=C(c1ccc(CSc2nc3ccncc3[nH]2)cc1)N1CCN(c2cccc(Cl)c2)CC1 | – | inconclusive: 50.1 µM [inhibitor, partial curve]
Cc1ccc(C(=O)N2CCN(c3ccc(NC(=O)COc4ccccc4C)cc3)CC2)cc1 | – | inconclusive: 25.1 µM [inhibitor, full curve]
CN(C)C1NC(=O)c2cc(-c3ccccc3)sc2N1 (configuration not stated) | – | inconclusive: 63.1 µM [inhibitor, partial curve]
CN(C)/C=C/C(=O)c1ccc(N2CCN(c3ncc(C(F)(F)F)cc3Cl)CC2)cc1 | – | inconclusive: 56.2 µM [inhibitor, partial curve]
C=CCOc1cccc(/C=C\c2nc(O)c([N+](=O)[O-])c(=O)[nH]2)c1 | inactive: -14.1% | –
CCN(CC)S(=O)(=O)c1ccc(-n2cnnn2)c(C)c1 | inactive: 1.89% | –

Compound | activity change, negative = inhibition | Potency
Cc1ccc(CNC(=O)c2ccc3c(c2)c(C)c(C)n3Cc2ccc(Cl)cc2)o1 | – | inconclusive: 22.4 µM [inhibitor, full curve]
CC(CNC(=O)COc1ccccc1)OC(=O)Nc1ccc(Cl)c(Cl)c1 (configuration not stated) | inactive: -0.704% | –
CN(C)c1ccc(NC(=O)C[n+]2ccccc2)cc1 | – | inconclusive: 56.2 µM [inhibitor, partial curve]
CN(C(=O)CSc1nc(-c2ccccc2)cn1N)C(c1ccccc1)c1ccccc1 | – | inconclusive: 39.8 µM [inhibitor, partial curve]
CCOc1cccc(C2C(C(=O)c3ccc(C)o3)=C(O)C(=O)N2c2nccs2)c1 (configuration not stated) | – | inconclusive: 89.1 µM [inhibitor, single point]
CCCCOc1ccc(/C(O)=C2/C(=O)C(=O)N(CCCOC)C2c2ccncc2)cc1C (configuration not stated) | – | inconclusive: 89.1 µM [inhibitor, partial curve]
Cc1ccc(S(=O)(=O)Nc2cccc(C(=O)NCC3(N4CCCCC4)CCCCC3)c2)cc1F | inactive: -13.9% | –
Cc1cc(C)c(C)c(S(=O)(=O)NCc2ccc(C(=O)N3CCN(C)CC3)cc2)c1C | inactive: -5.44% | –
CCOC(=O)c1cccc(NC(=O)CCc2c(C)nn(-c3ccc(N4CCCCC4)nn3)c2C)c1 | – | inconclusive: 11.2 µM [inhibitor, full curve, poor fit]
CCCCN1C(=O)c2[nH]nc(-c3ccccc3O)c2C1c1ccc(OCc2ccccc2)c(OC)c1 (configuration not stated) | – | inconclusive: 12.6 µM [inhibitor, full curve]
Cc1ccc(C(=O)N(CC(=O)Nc2sc(C)c(C)c2C(N)=O)C2CCCC2)cc1 | – | inconclusive: 50.1 µM [inhibitor, partial curve]
CN(CCOc1ccccc1)CC(=O)Nc1ccc(Cl)cc1[N+](=O)[O-] | – | active: 0.794 µM
O=C(CNCc1ccco1)Nc1cc(S(=O)(=O)N2CCOCC2)ccc1N1CCOCC1 | – | active: 17.8 µM
COc1ccc(CCNCC(=O)Nc2ccc(C)c(Br)c2)cc1OC | – | active: 50.1 µM
COc1cc(/C=N/n2c(-c3cc(C)[nH]n3)n[nH]c2=S)ccc1O | – | inconclusive: 50.1 µM [inhibitor, single point]
C#CCOCCOCCOCCNc1nc(N2CCN(C(=O)[C@H](CO)n3cc([C@@H](N)C(C)C)nn3)CC2)nc(N2CCN(C(=O)[C@H](CCC(=O)O)n3cc([C@@H](N)[C@H](C)CC)nn3)CC2)n1 | – | inconclusive: 89.1 µM [inhibitor, single point]
Cc1ccc(S(=O)(=O)/N=C2\C=C(NS(=O)(=O)c3ccccc3)C(=O)c3ccccc32)cc1 | – | active: 31.6 µM
COC(=O)CCC(=O)OC1(C)C(=O)C2=CN(C3CCCC3)C(c3ccc(OC)cc3)=CC2=C(Br)C1=O (configuration not stated) | – | active: 56.2 µM
C/C(=N\Nc1cc(C)nc(-c2ccccc2)n1)c1cccc([N+](=O)[O-])c1 | – | inconclusive: 44.7 µM [inhibitor, partial curve]
O=C(c1ccco1)N1CCN(Cc2nnc(-c3cccc(Br)c3)o2)CC1 | – | inconclusive: 0.708 µM [inhibitor, full curve, poor fit]
CCOc1ccc(CNC(=O)c2ccc(CSc3nc4ccncc4n3Cc3ccc(F)cc3)cc2)cc1 | inactive: -21.5% | –
CCCCNC(=O)NS(=O)(=O)c1ccc(NC(=O)CCC(=O)c2cccs2)cc1 | inactive: -16.1% | –
Cc1cc(C)nc(N/N=C/c2ccccc2OCc2ccccc2)n1 | – | inconclusive: 56.2 µM [inhibitor, partial curve]
COc1ccc(CN(C)C(=S)Nc2ccc(Cl)cc2)cc1 | inactive: -7.42% | –
